# Results as given in PubChem BioAssay (NCI).
#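 The compound was tested at five concentrations on cells cultured in 96-well plates, with a 48-hour exposure period. GI50 marks 50% less growth. The concentration for full growth arrest is given as TGI.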
# System: NCI-H322M lung
# Experiment: NCI tumour cell line growth inhibition, 48 h
Compound,TGI [µM],GI50 [µM]
O=[N+]([O-])C1(CO)COC2(OC1)c1ccccc1-c1ccccc12,> 100,–
COC(=O)C([O][Ge]([CH3])([CH3])[CH3])c1ccccc1 (stereo not drawn),> 100,> 100
Cc1cccc2c1C(=O)OC2(c1cccc2ccccc12)c1cccc2ccccc12,> 100,–
CN(C)CCSc1nccc(-c2ccc(-c3ccnc(SCCN(C)C)n3)s2)n1,26,–
NC(=O)c1nnc2c(F)cccc2c1N,> 100,–
CC(=O)N1C(=O)/C(=C\C(=O)c2ccc(Cl)cc2)c2ccccc21,48.2,–
COC1OC(=O)C(OC)C(OC)C1OC (stereo not drawn),> 100,–
COc1ccc(OC)c(/C=C/C(=O)c2ccc(SC)cc2)c1,44,16.4
CC(C(=O)C(C)O[Si](c1ccccc1)(c1ccccc1)C(C)(C)C)=P(c1ccccc1)(c1ccccc1)c1ccccc1 (stereo not drawn),12.8,–
COc1cc(C)c(S(=O)(=O)N(CCCN)OCCCN)c(C)c1C,> 100,–
CC(=O)O[C@H]1Cc2c([nH]c3ccccc23)[C@@H](c2ccc(Cl)cc2)N1C(=O)CCNC(C)(C)C,9.06,4.51
CC(=O)OC1CC2C(C)(C)C(=O)C=C[C@]2(C)C2CCC3(C)C(=CCC3[C@H](CO)C[C@H](O)C(=O)C(C)(C)O)[C@]12C (stereo partly drawn),60.7,–
COc1nc2ncc([C@@H](O)[C@H](O)CO)nc2c(=O)[nH]1,> 100,–
Cc1cc(C)c(N)c(CO)c1,> 100,–
Nc1cc2ccncc2c2ccccc12,94.6,16.8
COC(=O)C1=C(c2cc(OC)c(OC)c(OC)c2)OC(c2cc(OC)c(OC)c(OC)c2)C1 (stereo not drawn),> 100,–
C=C1C(=O)O[C@H]2[C@H]1CC/C(COC(=O)c1ccc(Br)cc1)=C\CC[C@@]1(C)O[C@@H]21,7.43,2.46
Nc1ccc(Sc2ccc3c4c2cccc4c(=O)n2c4ccccc4nc32)cc1,35.1,7.77
CN(C)/C=C/C(=O)c1cccc(C(=O)/C=C/N(C)C)n1,> 100,–
C/C(=N/OCCC(=O)O)C1CC1,> 100,–

Compound,TGI [µM],GI50 [µM]
COc1ccc(C(OCC2OC(n3ccc(Oc4c(F)c(F)c(F)c(F)c4F)nc3=O)CC2OP(OCCC#N)N(C(C)C)C(C)C)(c2ccccc2)c2ccc(OC)cc2)cc1 (stereo not drawn),> 100,–
CC(=O)OC1COC(n2c(N)c(C#N)c(-c3ccccc3)c(C#N)c2=S)C(OC(C)=O)C1OC(C)=O (stereo not drawn),> 100,–
CCN(CC)c1ccc(/C=C2/NC(=O)NC2=O)cc1,> 100,35.8
CCOC(=O)C1=C(C)N(c2ccc(Cl)cc2)C2(O)C=CC(=O)C3C(=O)N(c4ccccc4)C(=O)C132 (stereo not drawn),6.79,–
C/C(=C\c1ccccc1)n1c(=O)cc(C)n1C,> 100,–
CCN(CC)CCn1nc2c3c(cccc3c1=O)-c1ccccc1-2,24.1,3.43
CC(C)S(=O)(=O)ON1C(=O)c2ccc([N+](=O)[O-])cc2C1=O,> 100,–
C/C(CC(=O)Nc1cc(Cl)c(Cl)cc1Cl)=N\NS(=O)(=O)c1ccc(C)cc1,> 100,–
CC1CC/C(=C\c2ccc(F)cc2)C2=C1C(c1ccc(F)cc1)NC(=S)N2 (stereo not drawn),> 100,–
C/C(=N/NC(=O)c1ccccc1Nc1ccccc1C(=O)N/N=C(\C)c1ccc(C)cc1)c1ccc(C)cc1,> 100,–
CC1=CCC(=O)[C@]2(C)C(CC(=O)O)[C@]3(C)C4=C(C)C(c5ccoc5)C[C@@H]4O[C@@H]3[C@H](O)[C@@H]12 (stereo partly drawn),> 100,–
CC(C)(CO)Nc1c(O)c2c(c(O)c1Cl)C(=O)C=CC2=O,2.61,–
COc1ccccc1NC(=O)NS(=O)(=O)c1ccccc1,> 100,–
BrCC[N+]12CCCN1CCC2,30.2,–
N#Cc1nc(-c2ccccn2)c(-c2ccccn2)nc1C#N,7.18,–
C=C(C)[C@@H]1CC[C@@H]2C(=CC[C@]3(C)C([C@H](C)CC/C=C(/C)C(=O)O)CC[C@@]23C)[C@@]1(C)CCC(=O)O (stereo partly drawn),62.8,–
CCc1cc(Nc2nccc(-c3c(-c4ccc(OC)c(C(=O)Nc5c(F)cccc5F)c4)nc4ccccn34)n2)c(OC)cc1N1CCC(N2CCN(S(C)(=O)=O)CC2)CC1,> 100,> 100
Cc1cccc2c1C(=O)/C(=C/c1ccccc1C(=O)O)C2,> 100,–
COc1cc2ccc(C(=O)O)cc2cc1OC,> 100,–
